According to publication PMC4336329 (PLoS ONE, 2015):
Hit rate of the full screen: of about 310,000 compounds, about 2,200 (0.71%) showed an effect of 50% or more. The effect is printed as a negative number. This is one part of the list.

Target: human ether-à-go-go-related gene (hERG) potassium channel (human, UniProt Q12809)
Experiment: primary screen, population patch clamp on CHO cells stably expressing hERG

Sequence of human ether-à-go-go-related gene (hERG) potassium channel (Q12809 whole entry, looked up): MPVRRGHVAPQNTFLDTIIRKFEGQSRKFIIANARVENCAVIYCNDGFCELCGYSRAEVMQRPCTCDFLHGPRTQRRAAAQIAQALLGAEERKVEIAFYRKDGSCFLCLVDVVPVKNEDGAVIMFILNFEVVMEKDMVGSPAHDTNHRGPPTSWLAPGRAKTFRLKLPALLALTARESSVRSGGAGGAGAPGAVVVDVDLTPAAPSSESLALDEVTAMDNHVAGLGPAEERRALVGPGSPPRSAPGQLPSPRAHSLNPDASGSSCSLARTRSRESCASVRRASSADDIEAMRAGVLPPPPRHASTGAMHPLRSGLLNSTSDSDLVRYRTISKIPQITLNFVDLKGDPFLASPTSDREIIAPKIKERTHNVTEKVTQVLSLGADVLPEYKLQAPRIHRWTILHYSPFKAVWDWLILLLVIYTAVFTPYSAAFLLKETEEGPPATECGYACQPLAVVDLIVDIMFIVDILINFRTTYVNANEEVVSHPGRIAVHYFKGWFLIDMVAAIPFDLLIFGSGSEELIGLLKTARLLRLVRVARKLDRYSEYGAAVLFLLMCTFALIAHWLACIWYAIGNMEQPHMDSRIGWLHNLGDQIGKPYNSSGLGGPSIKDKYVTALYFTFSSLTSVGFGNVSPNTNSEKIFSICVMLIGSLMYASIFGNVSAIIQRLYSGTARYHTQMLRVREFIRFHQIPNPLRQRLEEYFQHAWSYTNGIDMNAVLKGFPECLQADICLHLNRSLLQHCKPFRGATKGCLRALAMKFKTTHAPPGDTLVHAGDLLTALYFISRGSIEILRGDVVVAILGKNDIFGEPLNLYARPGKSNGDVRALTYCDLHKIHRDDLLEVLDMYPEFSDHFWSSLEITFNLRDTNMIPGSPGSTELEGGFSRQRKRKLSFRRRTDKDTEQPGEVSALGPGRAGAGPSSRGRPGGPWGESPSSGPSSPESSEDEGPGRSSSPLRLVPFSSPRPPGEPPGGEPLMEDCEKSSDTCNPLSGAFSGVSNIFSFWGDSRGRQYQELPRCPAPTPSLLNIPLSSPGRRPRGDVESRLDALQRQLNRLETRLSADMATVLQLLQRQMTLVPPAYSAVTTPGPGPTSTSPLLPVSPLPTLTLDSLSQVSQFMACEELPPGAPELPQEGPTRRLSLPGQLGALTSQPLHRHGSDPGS

| SMILES | hERG current change (%, negative = inhibition) at 1uM [%] |
| --- | --- |
| O=C(OCC(=O)C12CC3CC(CC(C3)C1)C2)c1ccc(CO)cc1 | -5.02 |
| Cc1c(NS(=O)(=O)c2ccc3c(c2)OCCO3)cccc1-c1nc2cccnc2s1 | 11.6 |
| Nc1c(C(=O)NCc2ccco2)c2nc3ccccc3nc2n1CCc1ccc(F)cc1 | 2.99 |
| CCCC(c1nnnn1CCOC)N(Cc1cc2cc(C)c(C)cc2[nH]c1=O)CC1CCCO1 (stereo not drawn) | -0.194 |
| Cc1ccc(C(=O)N2CCN(c3ccccc3O)CC2)cc1S(=O)(=O)N1CCCCC1 | -4.54 |
| O=C(NCCCN1CCOCC1)C1CCN(S(=O)(=O)c2cccc(C(F)(F)F)c2)CC1 | 6.36 |
| O=c1[nH]c(=O)n(-c2cccc(F)c2)c(O)c1/C=C1\C=Nc2ccccc21 | 11.8 |
| O=C(COc1ccccc1)NCC1COc2ccccc2O1 (stereo not drawn) | 14.1 |
| CCN(CC)CCNC(=O)c1cc2cc(Br)ccc2s1 | -13.5 |
| CCCc1cc(=O)oc2cc(C)cc(OCC(=O)NCc3ccccn3)c12 | -5.56 |
| Cc1cc(C)cc(Nc2nc3c(S(=O)(=O)c4ccccc4)nnn3c3ccccc23)c1 | 11.3 |
| Cc1ccc(N(CC(=O)Nc2c(C)n(C)n(-c3ccccc3)c2=O)S(C)(=O)=O)cc1C | 17.1 |
| COC(=O)c1ccccc1NC(=O)c1ccc2c(c1)OCCCO2 | 11.2 |
| Cn1c(=O)c2c(ncn2CC(N)=O)n(C)c1=O | 17.4 |
| COc1ccccc1CC1(C)NC(=O)N(CC(=O)Nc2cc(C)on2)C1=O (stereo not drawn) | 7.33 |
| C[C@@H](N)Cc1cnc[nH]1.Cl | 12 |
| CC1CN(c2ccc(NC(=S)Nc3ccc(N4CC(C)OC(C)C4)cc3)cc2)CC(C)O1 (stereo not drawn) | 14 |
| Cc1sc2nc(CN3CCCC3)nc(N3CCN(S(=O)(=O)c4cccc(F)c4)CC3)c2c1C | -8.91 |
| CCc1nn(CC(=O)NCc2ccccc2Cl)c(=O)c2cccn12 | 9.92 |
| O=C(CCCN1C(=O)/C(=C\c2ccccc2)SC1=S)Nc1ccccc1O | 19.6 |
| Cc1cc(=O)oc2ccc(OC(=O)CC(C)C)cc12 | 22.5 |
| CCOC(=O)Cc1csc(NC(=S)NC(=O)c2ccc(F)cc2)n1 | 15.4 |

| SMILES | hERG current change (%, negative = inhibition) at 1uM [%] |
| --- | --- |
| COc1cc(CNC2CCCCCCC2)ccc1OCC(N)=O | 15.9 |
| COC(=O)c1ccc(NC(=O)Nc2ccc(C)cc2)cc1 | 1.74 |
| O=C(NCCNC(=O)c1ccccc1Br)c1cccnc1 | 22.1 |
| CCO[C@H]1OC(C(=O)O)=C[C@@H](C2CCCCC2)[C@@H]1CCCO | 16.5 |
| CN(CC(=O)N1CC=C(c2ccccc2)CC1)S(=O)(=O)c1ccc2c(c1)c(=O)n(C)c(=O)n2C | -5.99 |
| CC1CCC2C(=O)N(c3ccc(C(=O)NCc4ccccc4)cc3)C(=O)C2C1 (stereo not drawn) | 13.3 |
| Cn1nc(-c2ccc(OCC(=O)Nc3ccccc3)cc2)c2ccccc2c1=O | 1.65 |
| Cc1ccc(C(C(=O)NC2CCCC2)N(C(=O)CNC(=O)c2cccs2)c2cccnc2)o1 (stereo not drawn) | 7.74 |
| O=C(CNC(=O)OCc1ccccc1)NC1CCCCCC1 | 13.4 |
| Cc1cnc(C(=O)OCC(=O)c2csc(N3CCCCC3)n2)cn1 | 10.6 |
| COc1cccc(NC(=O)CN(C)C(=O)c2c(-c3ccccc3)noc2C)c1 | 7.25 |
| O=S(=O)(C/C(=C/CO)S(=O)(=O)c1ccccc1)c1ccccc1 | -6.91 |
| O=C(Nc1nnc(SCCN2CCOCC2)s1)C1CC(=O)N(c2ccccc2)C1 (stereo not drawn) | 11.4 |
| Cc1ccc(S(=O)(=O)n2ccc3c(OCCOCCNCc4ccc(F)cc4)cccc32)cc1 | 10.2 |
| CCOC(=O)c1c(/N=C/C2C(=O)NC(=S)NC2=O)sc(C)c1C | 8.52 |
| CCc1cc(-c2n[nH]c(=S)n2Cc2ccccc2)cs1 | 5.55 |
| CCOc1ccc(/C=N/O)cc1 | 3.54 |
| C/C(=N\NC(=S)NC1CCCCC1)c1ccc(Cl)c(Cl)c1 | 7.3 |
| Cc1ccc(Cn2c(C(C)Nc3nc(C)cs3)nc3cc(Cl)c(Cl)cc32)cc1 (stereo not drawn) | 18.3 |
| COc1ccc(C)cc1NC(=O)C1CC(=O)N(Cc2ccco2)C1 (stereo not drawn) | 7.29 |
| CC(Oc1ccc(Br)cc1)C(=O)Nc1cc(S(=O)(=O)N2CCOCC2)ccc1N1CCCC1 (stereo not drawn) | 2.72 |
| Cc1[nH]nc(Nc2ccc(C(C)C)cc2)c1[N+](=O)[O-] | 10.8 |

| SMILES | hERG current change (%, negative = inhibition) at 1uM [%] |
| --- | --- |
| Cc1cc(=O)oc2cc(OCC(=O)N3c4ccccc4CC3C)ccc12 (stereo not drawn) | 10.7 |
| COc1cccc(OC)c1C(=O)Nc1ccccc1NC(=O)c1c(OC)cccc1OC | 9.5 |
| COCCCNC(=O)c1c(NC(=O)c2cccs2)sc2c1CCCC2 | 4.04 |
| COc1c(/C=C2\SC(=Nc3ccccc3Cl)NC2=O)cccc1[N+](=O)[O-] | 13.8 |
| CC(C)N(Cc1cc2ccccc2[nH]c1=O)C(=O)c1cccc([N+](=O)[O-])c1 | 4.34 |
| CN1CCOCCOCCOCCN(C)C1=S | 17.1 |
| O=C(c1ccc(F)cc1)N1CCN(c2ccc(N3CCOCC3)nn2)CC1 | 6.8 |
| COc1cc(C)c(CN2CCC(Oc3ccc(C(=O)N4CCCC4)cc3)CC2)cc1C | -7.65 |
| CCOC(=O)c1c2c3c(cccc3n(C)c1=O)C(=O)c1ccccc1-2 | -16.2 |
| CCOCCCNC(=O)C(c1ccc(C)cc1)N(Cc1cccs1)C(=O)c1ccccn1 (stereo not drawn) | 2.18 |
| CC(C)=C1SC(N2CCN(c3cccc(Cl)c3)CC2)=NC1=O | 12.3 |
| CC(C)c1nc(-c2ccccn2)no1 | -3.37 |
| Cc1cc(OC(C)C(=O)NNC(=O)Nc2ccc(F)cc2F)cc(C)c1Cl (stereo not drawn) | 14.6 |
| Cc1cccc(CN2C(=O)[C@@H]3Cc4c([nH]c5ccccc45)C(C)(C)N3C2=O)c1 | 6.9 |
| Cc1ccc(-c2ccc(/C=N/NC(=O)CN3CCCC3)o2)cc1Cl | -24.6 |
| CCCCOc1ccc(/C=N/NC(=S)Nc2cccc(C)c2C)cc1 | -7.15 |
| c1csc(-c2nc3ccccc3s2)c1 | -12.3 |
| CCc1ccc(-c2csc(NC(=O)C3=NN(c4ccccc4)C(=O)CC3)n2)cc1 | 19.3 |
| Cc1c(N2CCCC2)cc2c(c1NC(=O)c1ccccc1Cl)C(C)(C)CC2(C)C | 12.9 |
| CC(C)Cn1c2c(c(O)c(C(=O)Nc3ncccc3O)c1=O)CCCC2 | 5.51 |
| Cc1ccc(-n2nnnc2-c2nc3ccccc3s2)cc1 | 19.9 |
| O=c1ccnc(SCCc2ccccc2)[nH]1 | 17.6 |

| SMILES | hERG current change (%, negative = inhibition) at 1uM [%] |
| --- | --- |
| CSC1=C(C#N)C(C)C2=C(CC(C)(C)CC2=O)N1 (stereo not drawn) | 7.22 |
| CCOC(=O)c1ccc(S(=O)(=O)N2CCN(CC(O)COc3cccc(C(C)=O)c3)CC2)cc1.O=C(O)C(=O)O (stereo not drawn) | 10 |
| COc1ccc(NC(=O)CSc2nnc(C3CC3)n2-c2ccccc2)cc1 | -4.85 |
| CN(C)CCCNC(=O)c1cc(C(=O)c2cccc(Cl)c2Cl)c[nH]1 | -8.64 |
| O=[N+]([O-])c1ccc(Oc2ccc(-c3nnco3)cc2)c(Cl)c1 | -3.69 |
| CCC(C)(C)NC(=O)C(c1cccn1C)N(Cc1ccc(OC)cc1)C(=O)Cn1nnc2ccccc21 (stereo not drawn) | 1.79 |
| O=C(Nc1ccccc1)NN1CC(=O)N(c2ccc(Cl)cc2)CC1=O | 15.3 |
| COc1ccc(-c2noc(N3CCCC(C(=O)Nc4ccc(F)cc4F)C3)n2)cc1 (stereo not drawn) | -12.7 |
| CC(C)[C@H](N)c1nnc(SCc2ccc(Cl)cc2)o1.Cl | 13 |
| COc1ccc(NC(=O)C2CCCC2)cn1 | 15.3 |
| Clc1ccc(Cc2nnc(-c3ccccc3Br)o2)cc1 | 13.4 |
| COc1ccc(S(=O)(=O)CCC(=O)N(C)c2ccc(OC)cc2OC)cc1 | -2.39 |
| C/C(=N\NC(=O)c1ccc(NS(=O)(=O)c2cccs2)cc1)c1ccccc1 | 12.5 |
| Cc1ccc(-c2cc(C(=O)OCC(=O)NC3CC3)c3ccccc3n2)cc1 | 13.3 |
| Cc1[nH]c2ccccc2c1CCN(Cc1cccnc1)C(=S)Nc1cccc(F)c1 | 15.7 |
| O=C(N/C(=C/c1ccc(Br)cc1)C(=O)N1CCCC1)c1cccs1 | 9.87 |
| CCCOc1ccc(C(C)=O)cc1CC(C(=O)OCC)C(=O)OCC | 13 |
| O=C(O)C(=O)O.c1ccc(OCCOCCN2CCN(C(c3ccccc3)c3ccccc3)CC2)cc1 | -10.2 |
| COc1c(C(O)CC(C)C)ccc2c1C(=O)OCc1cc(C)cc(O)c1O2 (stereo not drawn) | 5.24 |
| COc1ccccc1OCC(=O)Nc1ccc(CSc2ccccc2)cc1C | 9.85 |
| CCOc1ccc2nc(SCC(=O)Nc3cc4c(cc3C(C)=O)OCO4)[nH]c2c1 | 5.19 |
